Experimental findings from PubChem BioAssay AID463173 (ICCB-Longwood Screening Facility, Harvard Medical School, 2010) are described below.

The whole screen tested about 52,000 compounds, of which about 4,300 (8.3%) were called active. No stated cut-off is given here; in the data, active means survival mostly below about 52% (no sharp cut-off); inactive means mostly above about 56%. The list shows a part of the results.

The subject of this assay is DeltatarO mutant. The experiment in a line: S. aureus survival, RN4220 and DeltatarO strains – OD600, teichoic acid synthesis inhibitors, primary screen (AID 463173). The following applies: S. aureus RN4220 wild type/DeltatarO growth, OD600, 18 h, stronger effect = lower value, screened at 18.75 µg/mL (by protocol).
As to `COc1cccc(-c2nnc3n(CCc4ccccc4)c(=O)c4ccccc4n23)c1O`, the survival is inactive: 79%.

With `Cn1c(=O)c(=O)n(C)c2cc(N3CCCC3)c(NC(=O)c3ccc(C(C)(C)C)cc3)cc21`, the survival is inactive: 59%.

Consider `COc1ccc(C)cc1NC(=O)C1CCCN(S(=O)(=O)c2ccc3c(c2)oc(=O)n3C)C1` (stereo not given), for which the survival was inactive: 94%.

For `CCOC(CSc1nnc2c3ccccc3n(CC)c2n1)OCC`, the survival was inactive: 80%.

On to `CCOc1ccccc1CNC(=O)CN1C(=O)CCn2nc(-c3cn(C)c4ccccc34)cc21`, for which the survival was inactive: 66%.

On to `O=C(c1ccc2c(c1)N(Cc1cccc(Cl)c1)C(=O)c1ccccc1S2(=O)=O)N1CCC(Cc2ccccc2)CC1`, for which the survival is inactive: 98%.

For `COc1ccc(CNC(=O)c2ccc3c(c2)NC(=O)C(CS(=O)(=O)Cc2ccccc2Cl)N3)cc1` (stereo not given), the survival was inactive: 58%.

As for `CCc1cccc(CC)c1NC(=O)c1c(C)oc2ccc(O)c(CN3CCOCC3)c12`, the survival was inactive: 90%.

For the compound `COc1cc(Cl)c(C)cc1Nc1c2c(nc3ccccc13)CCC2`, the survival was inactive: 70%.

With `Cc1nc2ccc(S(=O)(=O)N(CC(=O)Nc3ccc(Cl)cc3)Cc3ccccc3)cc2s1`, the survival was inactive: 58%.

`CCOC(=O)c1cccc(NS(=O)(=O)c2c(C)nc3sc(C)cn3c2=O)c1`: the survival is inactive: 89%.

Turning to `CCc1ccc(NC(=O)C2CCN(S(=O)(=O)c3c(C)noc3/C=C/c3cccs3)CC2)cc1`, the survival was inactive: 89%.

With `CC(C)(C)C(=O)N1CCCC(c2nc3c(nnn3Cc3ccc(C(C)(C)C)cc3)c(=O)[nH]2)C1` (stereo not given), the survival is active: 1%.

For the compound `CCn1cc(C(=O)NCCOC)c(=O)c2cc(S(=O)(=O)N3CCOCC3)ccc21`, the survival was inactive: 82%.

Regarding `Cc1ccc(C(=O)CCCn2nnc(-c3ccncc3)n2)cc1C`, the survival was inactive: 100%.

Turning to `COc1cc(OC)cc(C(=O)Nc2ccc3oc(-c4ccc(Cl)cc4)nc3c2)c1`, the survival is active: 50%.

As for `O=C(c1cccc(C(F)(F)F)c1)C1CCN(C(=O)N2CCOCC2)CC1`, the survival was inactive: 103%.

Take `CCOC(=O)C1=C(c2ccccc2)Nc2ncnn2C1c1ccc(Cl)cc1` (stereo not given): the survival was inactive: 83%.

With `O=C(CCC1N=C2c3ccccc3N=C(SCC(=O)Nc3ccccc3F)N2C1=O)NCc1cccs1` (stereo not given), the survival is inactive: 96%.

Regarding `COc1ccc(NC(=O)CN(C)S(=O)(=O)c2ccc3c(c2)CCCN3C(C)=O)cc1Cl`, the survival was inactive: 90%.

For `Cc1cc(Nc2ccc(C(C)C)cc2)nc(-n2nc(C)cc2C)n1`, the survival is inactive: 90%.

In the case of `CC(C)c1nnc(NC(=O)c2ccccc2)s1`, the survival is inactive: 80%.

In the case of `CCCCCn1c(=N)c(S(=O)(=O)c2ccccc2)cc2c(=O)n3cccc(C)c3nc21`, the survival was inactive: 82%.

For the compound `Cc1cccc2sc(N(Cc3cccnc3)C(=O)Cc3ccccc3)nc12`, the survival is inactive: 81%.

In the case of `Cc1nnc(SCc2ccccc2Cl)c2cc3occc3n12`, the survival is inactive: 74%.

`CC(C)Oc1cccc(C(=O)Nc2ccc(-c3nc4cc(Cl)cc(Cl)c4o3)cc2)c1`: the survival was inactive: 55%.

As to `COc1cc(-c2noc(-c3ccc(NC4CCCCC4)c([N+](=O)[O-])c3)n2)cc(OC)c1OC`, the survival is inactive: 76%.

`O=C(NCCN1CCOCC1)c1ccc(NC(=O)C2COc3ccccc3O2)cc1` (stereo not given): the survival was inactive: 67%.

In the case of `Cc1ccc(NC(=O)CSc2nc(-c3cccs3)cc(C(F)(F)F)n2)cc1C`, the survival is inactive: 155%.

`COc1ccc(-c2nn[nH]n2)cc1`: the survival was inactive: 105%.

On to `CSc1cccc(N2C(=O)N(CC(=O)NCc3ccccc3Cl)c3ccccc3S2(=O)=O)c1`, for which the survival is inactive: 119%.

As to `CCOc1ccccc1N(C)C(=O)Cn1cnc2onc(-c3ccc(F)cc3)c2c1=O`, the survival is inactive: 91%.

Regarding `CC(C)CCOc1ccc(Oc2nc(N(C)C)nc(N(C)C)n2)nn1`, the survival is inactive: 62%.

For `CCOC(=O)c1cnc(SC2CC(=O)N(c3ccccc3)C2=O)nc1N` (stereo not given), the survival was inactive: 82%.

`COc1ccccc1-n1ncc2c(=O)[nH]c(SCC(=O)Nc3cccc(F)c3)nc21`: the survival is inactive: 71%.

For the compound `COc1ccc2c(CNCc3cccs3)c(C(=O)O)n(Cc3ccc(F)cc3Cl)c2c1`, the survival is inactive: 115%.

In the case of `CCOc1ccc(C(=O)c2oc3ccccc3c2NC(=O)c2cc(-c3ccccc3)on2)cc1`, the survival is inactive: 87%.

Take `Cc1ccc(NC(=O)C(Cc2ccccc2)n2cccc2)c(C)c1` (stereo not given): the survival was inactive: 67%.

For `O=C(Nc1cccc(C(=O)N2CCN(c3ccc(F)cc3)CC2)c1)c1nsc2ccccc12`, the survival is inactive: 88%.

Turning to `CCCN(C(=O)c1nn(-c2ccc(C)cc2)c(=O)c2c1c1ccccc1n2C)c1ccccc1C`, the survival was inactive: 89%.

Take `Cc1oc2ccc(O)c(CN3CCN(Cc4ccccc4)CC3)c2c1C(=O)Nc1cccc(Cl)c1C`: the survival is inactive: 72%.

For the compound `O=C(Nc1ccc(Oc2ccccc2)cc1)C1CCN(S(=O)(=O)c2ccccc2)CC1`, the survival was inactive: 51%.

As to `CCOC(=O)c1c(NC(=O)c2ccc(S(=O)(=O)N(C)C)cc2)sc2c1CCN(C)C2`, the survival is inactive: 75%.

As for `Cc1cc(C)c2[nH]c(=O)c(C(c3nnnn3CC3CCCO3)N3CCN(c4ccccc4F)CC3)cc2c1` (stereo not given), the survival is inactive: 91%.

On to `COc1ccc(NC(=O)Cn2c(=O)n(CC3CCCO3)c(=O)c3ccccc32)cc1` (stereo not given), for which the survival was inactive: 102%.

With `CCCCCCNc1ncnc2c1sc1nc(N3CCOCC3)c3c(c12)CCCC3`, the survival was inactive: 83%.

Regarding `CCCCSCCCNC(=O)c1cc(-c2cccnc2)nc2ccc(S(=O)(=O)N3CCC(C)CC3)cc12`, the survival was inactive: 83%.

For `CCc1ccc(Sc2cc(C(=O)NCCCN3CCCC(C)C3)c3ccccc3n2)cc1` (stereo not given), the survival was inactive: 75%.

Take `Cc1ccccc1CCNCc1c(C(=O)O)c(C)n(Cc2c(F)cccc2Cl)c1C`: the survival was inactive: 85%.

For the compound `Cc1ccc(NC(=O)CN2CCN(C3CCCCC3)C(=O)C2=O)cc1`, the survival is inactive: 80%.

With `O=c1cc(COc2cccc(C(F)(F)F)c2)nc2sc3c(n12)CCCC3`, the survival is inactive: 107%.

As for `Cc1ccc(-n2ncc(C(=O)N3CCN(C4CCCCC4)CC3)c2C2CCN(C(=O)OC(C)(C)C)CC2)cc1`, the survival is inactive: 82%.

On to `CCOc1ccc(NC(=O)c2cnn3c(C(F)F)cc(-c4ccc(C)cc4)nc23)cc1`, for which the survival was inactive: 73%.

On to `CC(=O)c1ccc(N2CCN(C(=O)Cn3ncc4c3-c3ccccc3OC4)CC2)cc1`, for which the survival was inactive: 61%.

As to `COc1ccccc1/C=C/c1nc(C#N)c(NC(C)c2ccccc2)o1` (stereo not given), the survival was inactive: 70%.
